The record followed here is the RNAGym collection of RNA variant scans (doi:10.1093/nar/gkz1192).

Sequences and labels used below:
B1: CPEB3 Ribozyme (parent)
chain: UAACAGGGGGCCACAGCAGAAGCGUUCACGUCGCAGCCCCUGUCAGAUUCUGGUGAAUCUGCGAAUUCUGCUGUAUAUCUC

Read counts are not given, so values of variants with three or more changes are uncertain.

Variants of B1 are the subject of the data set. Put plainly: self-cleavage, relative activity (ratio to wild type); higher = more cleavage; in vitro, sequencing. The essentials: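 Relative activity was defined as the cleaved/total read fraction for a variant divided by the same fraction for the unmutated ribozyme. CPEB3 self-cleaving ribozyme libraries were made by rounds of error-prone PCR, barcoded, and transcribed in vitro with T7 RNA polymerase for 5 hours at 37°C, and cleavage ran through transcription plus a 15 min DNase I step before EDTA. Illumina sequencing of template-switched reverse transcripts gave the reads, and DNA sequencing mapped the barcodes. Averages come from three batches, using variants with at least 5 reads.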
In the case of U43A C44U G52A, the self-cleavage was found to be 1.03. U41G U54C U72C: the self-cleavage worked out at 0.24. The figure for U43A U54C U60C is 0.4; for U41C U51C U72C it is 1.18.

As for U41C U60A A64G A77G, the self-cleavage was found to be 0.28. The figure for U41C U48A U51C U80C is 0.26; for U41G U51A U72A it is 0.4. The figure for U41C U58C U60A U80C is 0.18; for U43C A45U U48C C59U A65G A75G it is 0.02; for G42A U58G U60C U67C it is 0.12. The figure for U43A U51C U54G is 0.91; for U41C U49C G52A it is 0.73.

As for U41C U49A U54C, the self-cleavage was found to be 0.28. Consider U43C A45G U48C, for which the self-cleavage was determined as 0.08. In the case of G42A U54C U78C it was 0.25; in that of U41C U49C A57G G73C U78C, 0.74. In the case of U43A U51C A57G A75U U76C it was 1.18.

For the variant U41C U54C U74C, the self-cleavage came to 1.19. In the case of U41C U60A U74A U76C, the self-cleavage turned out to be 0.96. In the case of U41C U43G U51A U69C it was 0.43. On to U43A U54A C62U, for which the self-cleavage was determined as 0.1. On to U43C A45G U54A A56G U60C, for which the self-cleavage is 0.74. The figure for U41C U51C U76A U78C is 1.07. Turning to U41C U49C G53U U54A U67C, the self-cleavage is 0.27. Take U41C U58A U60A: the self-cleavage came out at 0.14. For the variant G42A U72C U76A, the self-cleavage came to 0.32. U43A A56U U66C U72C: the self-cleavage is 0.27. Regarding G42C U60C U66C, the self-cleavage was 0.12. U43A A56U U60C: the self-cleavage is 0.39. The figure for U41C U49A U80A is 1.06; for U43A U54C G73U it is 1.25; for G42A A45C U72A it is 0.07. Consider G42A U54C C62U, for which the self-cleavage came to 0.14. The figure for G42U U58C A64G U67C is 0.08; for G42A U49C A57G it is 0.1. Regarding U41G A65U U67G, the self-cleavage turned out to be 0.17. In the case of U43C A45G U48C A56U it was 0.16.

As to U41C U43C U78C U80C, the self-cleavage is 0.2. In the case of U41C U49C U51C A64G it was 0.15; in that of U43A A56U U66C, 0.15.

For the variant U43A U49C A56G U66C U69C, the self-cleavage was found to be 0.17.

Regarding G42U U69A U74C, the self-cleavage was determined as 0.21. The figure for U41G C68A U69A is 0.27; for U41C U49C A64G G70U it is 0.17; for U41C U60A U80G it is 0.78. Take U41C U60A U80C: the self-cleavage is 0.7.

Take U41C U60A U80A: the self-cleavage stood at 0.68.

Consider G42A U43C U49C U67C U69A, for which the self-cleavage worked out at 0.05. In the case of U43A A45U U49A U60C U72A it was 0.14.

Consider U41C U49C U66G U69C, for which the self-cleavage is 0.45.

U41C U78G U80C: the self-cleavage came to 1.08. Consider U41C U51G A64G U80A, for which the self-cleavage is 0.85. In the case of U43A C62U C68U U74C it was 0.22. As to G42A A45C U54G, the self-cleavage stood at 0.11. U43A U60C A64G U69A: the self-cleavage came to 0.22. U43A A47G U60C U72C: the self-cleavage came to 0.54. Turning to U41C U54A U74A, the self-cleavage turned out to be 1.23.

On to U41C U58A A65U U67C U74C U80A, for which the self-cleavage worked out at 0.22. Regarding U41C U72C A77G, the self-cleavage turned out to be 1.22.

Consider U43A C71U A77U, for which the self-cleavage came to 0.66. Regarding U41C U48C A56U, the self-cleavage was 0.37.

Consider U41C U43C U72G, for which the self-cleavage was determined as 0.43. As for U41C U43C U72A, the self-cleavage stood at 0.3. U43C A45G G46A U69C: the self-cleavage worked out at 0.02. With U41C U69A U80C, the self-cleavage was found to be 0.48. The figure for G42A U72G A77G is 0.19. In the case of U41C U74C C79A it was 1.28; in that of G42C A57G A64U U78C, 0.07. The figure for U41C U48C A56U U72G is 0.11; for G42A U54C A56U it is 0.54; for U43A A47G A57G C62U it is 0.13. Regarding U43A A47G G61C C62U, the self-cleavage came out at 0.13. U41C U78C C79G: the self-cleavage was 1.07.

Regarding U41G U60A U76A, the self-cleavage was 0.22. Take U43A A47G U48C: the self-cleavage was found to be 0.28. On to U43A U69A A75G, for which the self-cleavage amounted to 0.65.

Turning to G42U U49C G53A C59U A64G, the self-cleavage is 0.12. G42A U54C A56G U69A: the self-cleavage was determined as 0.42. The figure for G42A U58C U76C is 0.23; for U43C A45G A57G U69A U72C U78C it is 0.09; for U41C U48A A64G U66C A77G it is 0.06.

Turning to G42A A47G U78C, the self-cleavage worked out at 0.21. Turning to U43C A45U U48C A56U G70A, the self-cleavage is 0.05. As to U41G A45G U60G, the self-cleavage is 0.28. In the case of U41C U48C U54G U72A it was 0.36; in that of U43A G46A C62U, 0.17; in that of U41C U51C U66C U80C, 0.43.

On to U41C U51A A64U U66C U74C U78A, for which the self-cleavage is 0.2.

Consider U43A U51C A57U, for which the self-cleavage is 0.43. In the case of U41C U66C U67G it was 0.22. For U41C U66G U76C U80C, the self-cleavage worked out at 0.17. The figure for U41C U67C A77G is 0.51; for U41C U67C A77U it is 0.24.

Consider U43A G46A U54A, for which the self-cleavage amounted to 0.18. The figure for G42C U69C U80C is 0.13; for U41C U54C U78C it is 0.98. The figure for U41G A56G U58C A64U U76C is 0.07; for G42C U43A U49C it is 0.43. On to U41C U51C A57G U58C, for which the self-cleavage is 0.41. The figure for U43A A57G A65G U80A is 0.69.

As for U43C A45G U78C, the self-cleavage stood at 0.51.

For U43A A57G U60C A64G U66C C71A, the self-cleavage turned out to be 0.31. The figure for U43A G46C U72A U76C is 0.43; for U43A A45G A56U A64G U72A it is 0.13; for U43A A47G U80C it is 1.08. As for U43A U51C U67C, the self-cleavage is 0.3. Take U41C U74A A75G: the self-cleavage was 1.22.

In the case of U41C U54C U60C A64G, the self-cleavage amounted to 0.3. The figure for U41C U74C A77G is 1.27; for U41C U72C A75G it is 1.21; for U43C A45U U78C it is 0.11. In the case of G42A U60C A75G it was 0.06. Consider U43C A45U U49A, for which the self-cleavage turned out to be 0.29.

Regarding U41G U43C U78C, the self-cleavage is 0.23. The figure for U43A G52A U69A U80A is 0.47; for U43C A45U U60A A75U it is 0.88.

On to U41C U51C A75U, for which the self-cleavage is 0.68. In the case of U43A A56G A64G U69A U74C it was 0.28; in that of U41C U51A U69A U76C, 0.84; in that of U41C U66C G70U, 0.25. Turning to U43A U72G U74C, the self-cleavage was 1.19.

U43C A45C A75U: the self-cleavage is 0.23. The figure for U41C U48C G53A U72C is 0.66; for U43A U48C G55U U69A U72C it is 0.2; for G42A U54C A64G U66A A77G it is 0.08. For G42A A64U U72C, the self-cleavage amounted to 0.37. In the case of U43A U48A U51C U80A it was 0.67; in that of U41G A64G U80G, 0.17. For U41C U58C U69A U80A, the self-cleavage was 0.13. Consider U41G A57G U58C, for which the self-cleavage turned out to be 0.11. In the case of U41C U54C A57G U58C U72C it was 0.4; in that of U41C U54A U58G A64U, 0.13; in that of U41C U51A A64U, 0.23. As for U41G U49C U51A, the self-cleavage was 0.44. As for U43A U58C U76C U78C, the self-cleavage came to 0.48.

U41G U51C U69A: the self-cleavage was determined as 0.35. For U41G U51A A77U, the self-cleavage was 0.11. Take U43A U54G U80C: the self-cleavage amounted to 0.64. U43A A45G U54C A64G: the self-cleavage was determined as 0.57. In the case of U43A A45U A56G it was 0.27; in that of U41C U58A U74C U80A, 0.92; in that of U43A U51A U58C, 0.44. In the case of U41C U74C U78C it was 1.19; in that of U41G U43C A65G U67C, 0.37. As for U41C U48C C62U U72A, the self-cleavage came out at 0.13. As to U43A C44A U76C U80A, the self-cleavage was determined as 0.78. As to U41G G52A A77U, the self-cleavage came to 0.1.

Turning to U41C U69G U74A, the self-cleavage is 0.82. The figure for G42C A45G A64G U66C U72C U78C is 0.1; for U41C U48C U60C A77G it is 0.21. The figure for U41C U49C A56U C62U is 0.11; for U41C U54G U66C it is 0.15; for U41C U51A U67C it is 0.32. As to U41C U66A U72C U78C, the self-cleavage was found to be 0.47.

U43C A45U U60C U72C: the self-cleavage is 0.28.

With U43C A45U U54C, the self-cleavage came to 0.18. In the case of U41C U54A U72C it was 1.21. For the variant U43A U76C U78C, the self-cleavage turned out to be 1.09.

With U41C U43C U49A U78C, the self-cleavage was 0.13. Take U41C U49C G53U A65G: the self-cleavage stood at 0.17. In the case of U43A U72C U74A it was 1.27.

For U43A A57G A75G U78C, the self-cleavage turned out to be 0.44. On to U41C U49C A64G U67C, for which the self-cleavage worked out at 0.08. The figure for U41C U49C U58A U74A is 0.13; for U41C U51C U58A it is 0.29; for U41C U49C U51A U54A G61A U69A U74A it is 0.31. In the case of U41G U54C G63U A65G it was 0.15.
